± gives the standard deviation of the averaged measurements. Whole data set: some 33,000 sequences, median “E-score (dimensionless, -0.5 to 0.5)” near -0.049, cut for the highest 2% near 0.37. Some of the results follow.

The subject of this experiment is T1, PmTbr T-box DNA-binding domain (GST fusion).
T1 sequence: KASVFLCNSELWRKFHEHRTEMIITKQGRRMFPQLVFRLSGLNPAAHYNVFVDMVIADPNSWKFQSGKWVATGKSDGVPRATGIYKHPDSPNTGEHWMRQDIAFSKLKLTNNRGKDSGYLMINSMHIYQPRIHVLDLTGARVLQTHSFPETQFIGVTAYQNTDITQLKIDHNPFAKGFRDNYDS
Description: PBM E-score of 8-mer (E-score (dimensionless, -0.5 to 0.5)); Tbr is Tbrain of the sea star Patiria miniata (Pm) or the sea urchin Strongylocentrotus purpuratus (Sp); higher = stronger binding preference; most listed sequences are background and not binding sites. Particulars: the construct has about 5 more residues each side. In a few lines:
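Primer extension turned Universal Agilent oligonucleotide arrays double-stranded. They were incubated with 200 nM protein in PBS (pH 7.5); the protein was a GST-fused Tbr T-box DNA-binding domain expressed in BL21 E. coli at 20 °C and purified on glutathione. Every ungapped 8-mer was scored from the scanned, quantified probe intensities, and the Universal PBM Analysis Suite gave each an enrichment E-score averaged over duplicate arrays.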
CCGTATCG: the “PBM E-score of 8-mer” value was found to be 0.0224 ± 0.023. For GGGCCACA, the “PBM E-score of 8-mer” value was determined as 0.0589 ± 0.039.

As to ATTCGCGC, the “PBM E-score of 8-mer” value amounted to 0.39 ± 0.021. On to CCGTCGTC, for which the “PBM E-score of 8-mer” value was found to be 0.047 ± 0.066. In the case of ATTGAATG, the “PBM E-score of 8-mer” value is -0.259 ± 0.011.

Take GACCGATC: the “PBM E-score of 8-mer” value was -0.0299 ± 0.1.

Take AAGGTCCA: the “PBM E-score of 8-mer” value was -0.146 ± 0.026.

For the sequence GTGTTGAA, the “PBM E-score of 8-mer” value was determined as 0.4 ± 0.013. For CATAGGTC, the “PBM E-score of 8-mer” value is -0.25 ± 0.059. For GGGCCCCA the value was -0.215 ± 0.011. For AGAAGCCC the value was -0.257 ± 0.071.

For the sequence CGCAGACG, the “PBM E-score of 8-mer” value was -0.0666 ± 0.0077. For CAAGTACG the value was 0.0658 ± 0.027; for ATCCTGCA, -0.237 ± 0.013; for AGTCCTCA, -0.215 ± 0.0072.

Consider GTCCCCAC, for which the “PBM E-score of 8-mer” value is -0.0774 ± 0.077. Regarding GAGTGGTA, the “PBM E-score of 8-mer” value is 0.0277 ± 0.058. In the case of ATGTCAAT, the “PBM E-score of 8-mer” value is 0.0294 ± 0.054.

In the case of AGCCTGCG, the “PBM E-score of 8-mer” value was -0.0619 ± 0.068. Consider AATCGAAC, for which the “PBM E-score of 8-mer” value amounted to 0.0204 ± 0.043.

Consider ATCTTCGG, for which the “PBM E-score of 8-mer” value is -0.149 ± 0.0024. On to GTTACAAC, for which the “PBM E-score of 8-mer” value was -0.0431 ± 0.044. As to AAACTAAT, the “PBM E-score of 8-mer” value is -0.257 ± 0.079. On to ATTTGGGA, for which the “PBM E-score of 8-mer” value was -0.249 ± 0.014.

In the case of ACGTGCCT, the “PBM E-score of 8-mer” value was -0.0451 ± 0.016. For the sequence ATCCCATC, the “PBM E-score of 8-mer” value was -0.245 ± 0.065. For GACTAGAA the value was -0.24 ± 0.018; for CTTGGGTA, -0.153 ± 0.041; for ATCGGCGG, 0.0203 ± 0.032. For ACATCAGC the value was -0.00705 ± 0.011. For the sequence CGGACCCC, the “PBM E-score of 8-mer” value is -0.3 ± 0.013. Consider CTTCGAAC, for which the “PBM E-score of 8-mer” value was -0.0549 ± 0.054. For TATAGGAA the value was -0.174 ± 0.06; for GACTCACC, 0.018 ± 0.085. In the case of GCCACTCA, the “PBM E-score of 8-mer” value amounted to 0.138 ± 0.087. With CAGTTGTC, the “PBM E-score of 8-mer” value is 0.253 ± 0.025. For the sequence GTATCAGA, the “PBM E-score of 8-mer” value is -0.104 ± 0.043. Turning to GGACTGCA, the “PBM E-score of 8-mer” value is -0.0271 ± 0.032. AGTACCCC: the “PBM E-score of 8-mer” value was -0.0951 ± 0.01. Consider AGGATGGA, for which the “PBM E-score of 8-mer” value was -0.248 ± 0.039. In the case of ATTGCAAT, the “PBM E-score of 8-mer” value was -0.0891 ± 0.15.

Turning to ATCGACAA, the “PBM E-score of 8-mer” value was 0.222 ± 0.036.

As to AGCATGTC, the “PBM E-score of 8-mer” value was -0.107 ± 0.053. As for GGATAACA, the “PBM E-score of 8-mer” value came to 0.2 ± 0.021. With ACGTTCAA, the “PBM E-score of 8-mer” value is -0.102 ± 0.12. For ATATTAGG the value was -0.156 ± 0.029; for ATCAAAGA, -0.168 ± 0.0017. As for GATTCGGC, the “PBM E-score of 8-mer” value is -0.0711 ± 0.029. Regarding CCCTAGAG, the “PBM E-score of 8-mer” value came to 0.0144 ± 0.04.

Turning to GCCTATCC, the “PBM E-score of 8-mer” value was -0.2 ± 0.0061. Regarding TAACGACA, the “PBM E-score of 8-mer” value stood at 0.174 ± 0.015. GTAGCTCA: the “PBM E-score of 8-mer” value is -0.175 ± 0.094. For AAATACAT the value was -0.0833 ± 0.0057; for ACAACTGC, 0.2139 ± 0.0011. In the case of AGGGACCT, the “PBM E-score of 8-mer” value is -0.0715 ± 0.077.

As for ATGATCTG, the “PBM E-score of 8-mer” value was -0.00895 ± 0.0095. For CGCTGTGC the value was -0.062 ± 0.015; for CAACATCC, 0.0179 ± 0.05. As for CGACAAGC, the “PBM E-score of 8-mer” value turned out to be 0.193 ± 0.027. With CCGGGAGC, the “PBM E-score of 8-mer” value was -0.208 ± 0.053. On to AGGCTGAG, for which the “PBM E-score of 8-mer” value was -0.0655 ± 0.066. For CCAAAGTA the value was -0.17 ± 0.014; for GAAGTTAA, 0.0494 ± 0.064. For CAAACCAC the value was -0.0764 ± 0.046. For the sequence ACATCAAT, the “PBM E-score of 8-mer” value is -0.0835 ± 0.045.

As to AAACCCAG, the “PBM E-score of 8-mer” value was 0.0108 ± 0.055. For the sequence ACATCAAC, the “PBM E-score of 8-mer” value was -0.103 ± 0.097. Turning to CCACCAAG, the “PBM E-score of 8-mer” value is -0.191 ± 0.036.

For the sequence AATAACAC, the “PBM E-score of 8-mer” value was determined as 0.339 ± 0.052. Take GACCAAGC: the “PBM E-score of 8-mer” value was -0.142 ± 0.051. For ATCAATGC, the “PBM E-score of 8-mer” value is -0.17 ± 0.0099. As to AACATCCA, the “PBM E-score of 8-mer” value is 0.00814 ± 0.0029. In the case of GGACAAAC, the “PBM E-score of 8-mer” value is -0.0524 ± 0.016.

GAAAAGGA: the “PBM E-score of 8-mer” value was -0.137 ± 0.031. Regarding ATAGCCAG, the “PBM E-score of 8-mer” value was -0.165 ± 0.075. For CCTGATCG, the “PBM E-score of 8-mer” value is -0.0604 ± 0.032. In the case of AAATTGAT, the “PBM E-score of 8-mer” value stood at 0.111 ± 0.024.

In the case of ATTTGTGA, the “PBM E-score of 8-mer” value was 0.201 ± 0.064. Turning to TCCTGCCA, the “PBM E-score of 8-mer” value stood at 0.183 ± 0.019. For the sequence GAGCTAAA, the “PBM E-score of 8-mer” value is 0.0372 ± 0.018.

As to ACCTCCAA, the “PBM E-score of 8-mer” value was found to be 0.0365 ± 0.013. As to ATGGAAAA, the “PBM E-score of 8-mer” value is -0.18 ± 0.071. For ACGGGTCA the value was -0.103 ± 0.13; for AAAGCTTT, -0.081 ± 0.092; for AGTACGGA, -0.226 ± 0.0099.

In the case of ACTCAGAC, the “PBM E-score of 8-mer” value worked out at 0.0474 ± 0.069.

(Values after the supplement of paper PMC4166925.)
